Whole data set: some 33,000 sequences, median “E-score (dimensionless, -0.5 to 0.5)” near -0.058, cut for the highest 2% near 0.35. The list shows a part of the results.

In the experiment the test system is MvaT. As to the kind of experiment: PBM 8-mer E-score (mean of HK and ME arrays) (E-score (dimensionless, -0.5 to 0.5)); higher = stronger relative binding preference; most listed sequences are background and not binding sites. An outline of the steps:
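Reported values are rank-based E-scores, taken as the mean of two universal arrays and parsed with a custom script. Each 8-mer score falls between -0.5 and 0.5. The arrays, ME and HK, were double-stranded 60-mers with a constant 25-mer primer region and a variable 35-mer region covering all 8-mers. They were probed, by an earlier protocol, with full-length P. aeruginosa MvaT carrying an N-terminal glutathione S-transferase fusion.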
Regarding CCAATCGG, the “PBM 8-mer E-score” value was -0.128.

As to ACCGAGCC, the “PBM 8-mer E-score” value was -0.243.

In the case of AGGACACT, the “PBM 8-mer E-score” value is -0.0447.

With CGTAAAGC, the “PBM 8-mer E-score” value is -0.0951.

As to TAATATCA, the “PBM 8-mer E-score” value was found to be 0.421.

On to AGAAAAGC, for which the “PBM 8-mer E-score” value was found to be 0.166.

As for GACGAGAA, the “PBM 8-mer E-score” value is -0.0626.

In the case of GGCGCACA, the “PBM 8-mer E-score” value is -0.114.

Turning to CCCGGTAG, the “PBM 8-mer E-score” value was -0.268.

Take CTCATCCA: the “PBM 8-mer E-score” value is -0.176.

With TTGGGAAA, the “PBM 8-mer E-score” value amounted to 0.137.

Regarding ATCTTACA, the “PBM 8-mer E-score” value amounted to 0.155.

As for ACTATAAC, the “PBM 8-mer E-score” value is 0.334.

On to CGAACTAC, for which the “PBM 8-mer E-score” value is 0.132.

Consider CTGAGAGC, for which the “PBM 8-mer E-score” value was -0.271.

AGAGGTCC: the “PBM 8-mer E-score” value was -0.328.

As for ACAGTAGC, the “PBM 8-mer E-score” value worked out at 0.0672.

Consider GATTGCAA, for which the “PBM 8-mer E-score” value stood at 0.127.

For AGATGCGC, the “PBM 8-mer E-score” value was -0.148.

As for CGATTCGC, the “PBM 8-mer E-score” value was -0.0586.

GCCGACGA: the “PBM 8-mer E-score” value is -0.338.

For ACGTAGAC, the “PBM 8-mer E-score” value is -0.0989.

Take CCAAGAAG: the “PBM 8-mer E-score” value was -0.0842.

As to CCGCATAA, the “PBM 8-mer E-score” value is -0.0045.

As for ACTATTCG, the “PBM 8-mer E-score” value worked out at 0.166.

CTGACATA: the “PBM 8-mer E-score” value was -0.054.

For the sequence CGGCACTA, the “PBM 8-mer E-score” value was -0.0559.

For AAATCTTA, the “PBM 8-mer E-score” value stood at 0.153.

In the case of CTTTCGTC, the “PBM 8-mer E-score” value was -0.112.

Turning to GATCCATC, the “PBM 8-mer E-score” value was -0.299.

Consider CATTGGGA, for which the “PBM 8-mer E-score” value is -0.109.

With AATCAATA, the “PBM 8-mer E-score” value is 0.283.

For ACCGTTCG, the “PBM 8-mer E-score” value was -0.215.

For the sequence CATCAGCA, the “PBM 8-mer E-score” value was -0.0304.

For CGTGGCTA, the “PBM 8-mer E-score” value was -0.168.

Turning to CCCCGGTC, the “PBM 8-mer E-score” value is -0.31.

On to ACGAAGAC, for which the “PBM 8-mer E-score” value was -0.0409.

Regarding CGCTCTGA, the “PBM 8-mer E-score” value is -0.167.

Turning to AACGAACC, the “PBM 8-mer E-score” value is -0.0678.

As to TACAGTCA, the “PBM 8-mer E-score” value was -0.0268.

In the case of CCCCTCCG, the “PBM 8-mer E-score” value was -0.328.

On to AACCAATA, for which the “PBM 8-mer E-score” value came out at 0.249.

Regarding AAGTGTTG, the “PBM 8-mer E-score” value is 0.124.

For ATCATTAA, the “PBM 8-mer E-score” value is 0.259.

In the case of TGAGAGCA, the “PBM 8-mer E-score” value was -0.229.

Turning to ACAGCGAA, the “PBM 8-mer E-score” value was 0.0419.

Turning to TGCCCCCA, the “PBM 8-mer E-score” value was -0.276.

In the case of CCAGTTGC, the “PBM 8-mer E-score” value is -0.118.

For AATATATG, the “PBM 8-mer E-score” value was 0.446.

For the sequence AATTTTCT, the “PBM 8-mer E-score” value came out at 0.13.

AACAGTCT: the “PBM 8-mer E-score” value is -0.0682.

Take GATCTAAC: the “PBM 8-mer E-score” value is -0.0118.

For AGTACTCC, the “PBM 8-mer E-score” value is -0.0648.

With CGTCAGCA, the “PBM 8-mer E-score” value was -0.0169.

Turning to ACACGGGC, the “PBM 8-mer E-score” value is -0.172.

On to ACACTGAC, for which the “PBM 8-mer E-score” value was -0.0431.

With ATAAATCC, the “PBM 8-mer E-score” value was 0.25.

In the case of CCCGATTC, the “PBM 8-mer E-score” value was -0.0947.

Consider AACAAAGT, for which the “PBM 8-mer E-score” value came to 0.2.

Regarding ATTTGAAC, the “PBM 8-mer E-score” value came to 0.25.

On to CGCCGAGA, for which the “PBM 8-mer E-score” value was -0.123.

In the case of CCCGCCAC, the “PBM 8-mer E-score” value is -0.182.

Consider AAAGGGCG, for which the “PBM 8-mer E-score” value was -0.126.

As to TACGCCAA, the “PBM 8-mer E-score” value came to 0.066.

Take CTTCGTCA: the “PBM 8-mer E-score” value is -0.292.

As to CGATACAC, the “PBM 8-mer E-score” value is -0.0952.

Turning to GCGTGCTA, the “PBM 8-mer E-score” value is 0.0243.

Regarding ATAGATGG, the “PBM 8-mer E-score” value turned out to be 0.0986.

Turning to CTGCTCTA, the “PBM 8-mer E-score” value is -0.0879.

Consider CATGTTCC, for which the “PBM 8-mer E-score” value is -0.042.

Turning to CACCTATG, the “PBM 8-mer E-score” value is -0.253.

In the case of ACCTGTCA, the “PBM 8-mer E-score” value is -0.114.

For ACACCTAG, the “PBM 8-mer E-score” value was -0.153.

In the case of CGGCACGA, the “PBM 8-mer E-score” value is -0.211.

CGGTAGTA: the “PBM 8-mer E-score” value was found to be 0.0348.

As to CCAGTCTA, the “PBM 8-mer E-score” value is -0.13.

For the sequence GCTTGTGA, the “PBM 8-mer E-score” value was -0.00155.

As for CAATTATA, the “PBM 8-mer E-score” value is 0.414.

With CGCCTTTA, the “PBM 8-mer E-score” value is -0.131.

Regarding AAATCTAC, the “PBM 8-mer E-score” value is -0.0273.

As for GCTGCCTA, the “PBM 8-mer E-score” value is -0.11.

As for ACGGGTGC, the “PBM 8-mer E-score” value is -0.272.

Regarding AAAATAGT, the “PBM 8-mer E-score” value was found to be 0.228.

Turning to ATCTCGTC, the “PBM 8-mer E-score” value was -0.0399.

On to CCACTGCG, for which the “PBM 8-mer E-score” value is -0.274.

For the sequence AGCCCAAG, the “PBM 8-mer E-score” value is -0.17.

In the case of CAGTGTTC, the “PBM 8-mer E-score” value came to 0.0998.

Turning to AAATCTGT, the “PBM 8-mer E-score” value was 0.174.

For the sequence CCTGATAC, the “PBM 8-mer E-score” value was -0.144.

In the case of GAGCGGCC, the “PBM 8-mer E-score” value is -0.203.

Consider ACAAGCGA, for which the “PBM 8-mer E-score” value is -0.105.

AGGTCCAC: the “PBM 8-mer E-score” value was -0.135.

Regarding GATCTCTA, the “PBM 8-mer E-score” value is -0.103.

With CCTTCGAC, the “PBM 8-mer E-score” value is -0.242.

Source of the values: the supplement of paper PMC4466236.
